Results from PubChem BioAssay AID1508624 (National Center for Advancing Translational Sciences (NCATS), 2021).
The campaign covered roughly 48,000 compounds. About 120 (0.25%) were called active. About 4% were inconclusive and are not listed. Calls come from the whole dose curve; as a rule, active = well fitted activation curve with a large enough effect; inconclusive = small, poorly fitted or top-dose-only effect, or another doubt; inactive = no such curve, though single readings can be large or run the other way. Some of the results follow.

assay: Primary qHTS for Identification of Small Molecule Activators of Huntingtin-Antisense Promoter Activity; details: HEK293 HTT-AS promoter firefly luciferase reporter, 24 h; series mostly up to 57.5 µM; activity change, positive = activation: at the top concentration; note: nearly all actives have a fitted effect of over 55% in size
In short: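 Luminescence was read after Dual-Glo reagent and a 10 min room-temperature incubation. Values were normalized to vehicle (0% activity) and zero RLU (-100% activity). Reporter HEK293 cells had been exposed to compounds (up to 57.5 uM final) for 24 h.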

Activity change, positive = activation, inactive:
COc1ccccc1C(=O)NCc1ccc2c(c1)CCN2C(=O)c1cccc(C)c1 -3.55%
COc1ccc(N2CCN(C(=O)C3CCN(S(=O)(=O)c4cnc[nH]4)CC3)CC2)cc1 5.08%
CCc1ccccc1Nc1nn2c(=O)c3ccc(C(=O)NCc4cccs4)cc3nc2s1 -29.5%
COC(=O)C1=C(C)NC(COC(N)=O)=C(C(=O)OC(C)C)C1c1cccc(Cl)c1Cl (stereo not drawn) -22.9%
Cc1cccc(C(=O)Nc2cccc(C(=O)OCc3cc(=O)n4c5c(sc4n3)CCCC5)c2)c1 -19.5%
CN1CCN(C(c2ccc(F)cc2)c2sc3nc(-c4ccco4)nn3c2O)CC1 (stereo not drawn) 20.6%
CCn1c(C)c(C)c2cc(C(=O)NCCc3cc(OC)c(OC)c(OC)c3)ccc21 -33.2%
CCc1ccc(S(=O)(=O)c2nnn3c2nc(NCc2cccs2)c2sccc23)cc1 -38.9%
CCc1ccc(NC(=O)c2cc(C(C)=O)n3ccccc23)cc1 14.9%
CC(C)c1ccc(C2N3CC4(C)CN2CC(c2ccccc2)(C3)C4=O)cc1 (stereo not drawn) 4.82%
CCCc1nn2c(=O)cc(COC(=O)c3cccc(NC(=O)COc4ccc(F)cc4)c3)nc2s1 8.89%
CCOC(=O)c1scc(-c2ccccc2)c1S(=O)(=O)Nc1ccccc1F -33.2%
Clc1cccc(N2CCN(c3ncnc4c3nc3n4CCCCC3)CC2)c1 -61.3%
Cc1nc(-c2ccc(Cl)cc2)sc1CCNC(=O)C(=O)Nc1ccc(F)cc1F -1.25%
O=C(O)c1cc(NC2(c3ccccc3)C(=O)c3ccccc3C2=O)ccc1Cl -1.14%
Cc1cc(C)c(Cn2c3ccccc3c3cnn(CC(=O)NC4CCC(C)CC4)c(=O)c32)c(C)c1 (stereo not drawn) -21.7%
O=C(Cn1c(=O)oc2cc(S(=O)(=O)N3CCCCC3)ccc21)Nc1cccc(Cl)c1 -45.8%
CCCCN1C(=O)c2[nH]nc(-c3ccccc3O)c2C1c1cccc(OCc2ccccc2)c1 (stereo not drawn) -31.1%
Cc1ccccc1NC(=O)c1ccc(F)c(S(=O)(=O)N(C)Cc2ccccc2)c1 -33.2%
COc1ccccc1C1C=C(c2ccc(F)cc2)Nc2nc(-c3ccc(Cl)cc3)nn21 (stereo not drawn) -36.6%
COC(=O)c1sccc1S(=O)(=O)N1CCN(c2ccccc2)CC1 -14.8%
CCOc1ccc(CCNC(=O)CCc2c(C)nc3c4c(C)cc(C)nc4nn3c2C)cc1 -22.3%
Cc1ccc2[nH]c(=O)c3cc(C(=O)N4CCN(c5ccccc5)CC4)sc3c2c1 0.0729%
Cc1cccc(C(=O)Nc2sc3c(c2C(=O)NCc2ccco2)CCCC3)c1 27%
COc1cccc(NC(=O)NCc2ccc3c(c2)CCN3C(=O)c2ccccc2)c1 -26.7%
CCN(CC)S(=O)(=O)c1ccc2c(c1)N(CC(=O)NCCCN1CCN(c3ccccc3F)CC1)C(=O)CO2 -6.85%
CC(C)CCNC(=O)CCCN1C(=O)c2ccccc2Sc2ncccc21 -20.5%
COc1cc(-c2noc(CN3CCN(c4ccccc4)CC3)n2)cc(OC)c1OC 2.3%
CCOC(=O)c1ccccc1NC(=O)N1CCc2c(sc(C)c2CC)C1c1ccccc1 (stereo not drawn) -15.8%
COc1ccccc1-c1nc2c(c(SCc3cccc(Cl)c3)n1)Cc1c(CO)cnc(C)c1O2 -31.4%
Cc1cccc(NC(=O)C(=O)NCC(c2ccc3c(c2)OCO3)N2CCOCC2)c1C (stereo not drawn) -18.2%
CCc1ccc(C2c3c(-c4ccccc4O)n[nH]c3C(=O)N2Cc2ccncc2)cc1 (stereo not drawn) -40.8%
COc1cc(OC)cc(C(=O)Oc2c(Sc3ccccc3)c(C)nn2C(C)(C)C)c1 -17.7%
Cc1cn2c(=O)cc(COC(=O)c3cccc(NC(=O)COc4ccccc4Cl)c3)nc2s1 -53.3%
CN1CCN(C(CNC(=O)c2cccc(F)c2)c2ccc3c(c2)OCO3)CC1 (stereo not drawn) -1.32%
Cc1cc(C)c(NC(=O)C2CCN(c3nc4ccccc4[nH]3)CC2)c(C)c1 -12.1%
O=C(Nc1cccs1)Nc1cc(C(F)(F)F)ccc1Cl -20.4%
Cc1ccc(Cl)cc1N1CCN(C(=O)c2cnc(N3CCOCC3)c3ccccc23)CC1 -48.2%
Fc1ccc(C(c2ccc(F)cc2)N2CCN(CC=Cc3ccccc3)CC2)cc1 -15.9%
CCc1ccc(NC(=O)CN2CCN(Cc3ccccc3)S2(=O)=O)cc1 -11.5%
Cc1oc2c(c(C)cc3oc(=O)c(CC(=O)NCCc4ccccc4F)c(C)c32)c1C -13.4%
CCOC(=O)C1CCN(c2ncnc3c2c(-c2ccccc2)cn3-c2cccc(C)c2)CC1 -28.5%
Cc1ccc(Cn2c(C(=O)O)c(CNCc3ccccc3Cl)c3ccc(C)cc32)cc1 -24.1%
Cc1ccccc1-n1c(SCC(=O)Nc2ccc(Cl)cc2F)nnc1-c1cc2occc2n1C -5.48%
Cc1cccc(NC(=O)CCCn2c(C)c3cnn(-c4ccccc4)c(=O)c3c2C)c1C -14.6%
CCc1ccc(CNC(=O)c2sc3ncccc3c2-n2c(C)ccc2C)cc1 -19.7%
Cc1ccc(-c2nc3cc(C(C)C)ccc3o2)cc1NC(=O)c1cc2ccccc2o1 -28.3%
CCOc1ccccc1CNS(=O)(=O)c1ccc2c(c1)CCCN2C(C)=O -19.1%
O=C(Cn1ccn(-c2ccc(F)c(F)c2)c(=O)c1=O)Nc1ccccc1F -0.645%
Cc1ccc(OCC(=O)Nc2ccc(S(=O)(=O)Nc3cc(C)nc(C)n3)cc2)c(Br)c1 -24.5%
Cc1ccc(C)n1-c1nnc(N2CCCC(C(=O)NCc3ccc(Cl)cc3)C2)s1 (stereo not drawn) -28.2%
COc1ccc(C2=CC(c3ccc(F)cc3)n3ncc(C(=O)Nc4ccc(C)cc4)c3N2)cc1 (stereo not drawn) -18%
Cc1ccc(CN2CCc3nc(N4CCN(c5ncccn5)CC4)ncc3C2)cc1 -33.9%
COc1cccc(NC(=O)CSc2nc3c(oc4ccccc43)c(=O)n2Cc2ccco2)c1 -27.1%
O=C(CCSc1nc(-c2ccco2)cc(C(F)(F)F)n1)Nc1cccc(O)c1 -16.7%
O=C(Nc1ccc2oc(-c3cccnc3)nc2c1)c1cccc(Br)c1 5.74%
Cc1ccc(N(CC(=O)NCCc2ccc(Cl)cc2)S(=O)(=O)N(C)C)cc1 -24.4%
Fc1ccc(-n2ncc3c(NCCCN4CCOCC4)ncnc32)cc1 6.81%
CCOC(=O)c1c(NC(=O)CSc2cn(CCNC(=O)c3ccccc3F)c3ccccc23)sc2c1CCC2 -38.2%
O=C(Nc1ccc2nc(SCC(=O)N3CCCc4ccccc43)sc2c1)c1cccc(F)c1 -37.9%
COC(=O)c1cc(S(=O)(=O)NCC2CCN(Cc3ccc(F)cc3)CC2)cn1C -11.9%
COc1cccc(CNC(=O)c2ccc(CSc3nc4ccncc4n3Cc3cccc(C)c3)cc2)c1 -25.3%
Cc1ccc2c(c1)N(CCC(=O)NCc1ccc(F)cc1)C(=O)CO2 -17.1%
CCOCCc1nn2c(=O)cc(COC(=O)CNC(=O)c3ccc(C(C)(C)C)cc3)nc2s1 -13.8%
COc1cc(NC(=O)CCc2c(C)nn(-c3ccc4nncn4n3)c2C)cc(OC)c1OC -9.92%
Cc1ccc(Cl)cc1N1CCN(S(=O)(=O)c2ccc3[nH]c4c(c3c2)CCCCC4)CC1 -28.4%
Cc1cccc(CSc2ncc(CO)n2Cc2ccc(F)cc2)c1 -18.7%
Cc1ccc2c(c1)-c1nc(-c3ccc(Cl)cc3)cc(-c3coc4ccccc4c3=O)c1CO2 -13.9%
CCCSc1ncc(Cl)c(C(=O)Nc2ccc(S(=O)(=O)Nc3ncccn3)cc2)n1 -5.92%
COc1ccc(NC(=O)CSc2ncc3c(n2)-c2cc(Cl)ccc2N(Cc2ccccc2F)S3(=O)=O)cc1 -7.35%
Cc1cc(C)c2c(=O)cc(C(=O)Nc3sc4c(c3C(=O)NCc3ccccc3)CCCC4)oc2c1 -10.4%
COc1ccc(C2=NS(=O)(=O)N(C)C(C(=O)Nc3cc(C)ccc3O)=C2)cc1OC -25.3%
Cc1nc(N2C(=O)c3oc4ccccc4c(=O)c3C2c2ccccc2F)sc1C (stereo not drawn) -3.98% [at 11.5 µM, percent change from vehicle, -100% = no light]
COc1cccc(N2CCN(S(=O)(=O)c3cc(Br)cc4c3N(C(=O)C3CC3)CC4)CC2)c1 -7.78%
Cc1cccc(N2C(=O)CSC23C(=O)N(Cc2cccc(F)c2)c2ccccc23)c1 (stereo not drawn) -34.5%
CN1CCN(C(CNC(=O)C(=O)Nc2ccccc2)c2ccc3c(c2)OCO3)CC1 (stereo not drawn) -4.86%
CCOC(=O)c1c(C)n(-c2ccccc2)c2ccc(OC(=O)c3ccccc3)cc12 -70.7%
Cc1cccc(-c2noc(CN(C(=O)COc3ccc(C(C)C)cc3)C(C)C)n2)c1 -30.4%
Cc1ccc(C)c(CSc2nc3ncccc3[nH]2)c1 -11.8%
Cc1c(CC(=O)NCCc2ccccc2F)c(=O)oc2c(C)c3occ(C(C)(C)C)c3cc12 -29.9%
COc1cccc(N2CCN(C(=O)c3ccc4c(=O)n(CCc5ccccc5)c(=O)[nH]c4c3)CC2)c1 -26.2%
COc1ccc(NC(=O)CSc2cn(CC(=O)N3CCOCC3)c3ccccc23)cc1OC -7.15%
COc1ccccc1CNS(=O)(=O)c1cc(C(=O)Nc2cccc(C(F)(F)F)c2)ccc1F -46.9%
CC(C)COC(=O)/C(C#N)=C\c1ccc(-c2ccccc2Cl)o1 30.9%
Cc1cccc(OCC(=O)Nc2c(C)ccc3nsnc23)c1C 0.0573%
COc1ccc(-c2cc(C(=O)NCc3cc(OC)c(OC)c(OC)c3)[nH]n2)cc1 -11.3%
CCc1ccc(S(=O)(=O)c2nnn3c2nc(N2CCC(C)CC2)c2cc(Cl)ccc23)cc1 0%
Cc1ccc(C)c(NC(=O)CCN2C(=O)c3ccccc3Sc3ncccc32)c1 -17%
O=C(CSc1ncc(S(=O)(=O)c2ccc(Br)cc2)c(=O)[nH]1)NCc1ccc(Cl)cc1 -6.54%
O=C(Nc1ccccc1)C(Cc1ccccc1)N1Cc2ccccc2C1=O (stereo not drawn) 0.0452%
CCOc1ccc(-c2nc(CSCC(=O)N3CCN(c4cccc(C(F)(F)F)c4)CC3)c(C)o2)cc1 -51.8%
Cn1c(C(=O)NCc2cccc(Cl)c2)cc2oc3ccccc3c21 -11.1%
CC(=O)c1ccc(N2CCN(C(=O)CCCn3c(=O)[nH]c4ccsc4c3=O)CC2)cc1 -8.29%
